Reference: PubChem BioAssay (NCATS)
Inconclusive means that the source gave no clear call. Such entries were picked first, then a sample of the others. For some assays here: Where the call is inconclusive, the potency comes from a doubtful curve fit. The source made the active and inactive calls. Unless noted, calls come from the whole dose curve; as a rule, active = well fitted curve in the direction sought with a large enough effect; inconclusive = small, poorly fitted or top-dose-only effect, or another doubt; inactive = no such curve, though single readings can be large; an effect the other way counts as inactive or inconclusive.

Experiments:
[1] = qHTS Assay for Identification of Small Molecule Antagonists for NFkB Signaling Pathway (AID 895; active = well fitted inhibition curve with a large enough effect in the signal ratio, with a control signal flat, not every such curve was filed as active; inconclusive = small, poorly fitted or top-dose-only effect, or effect the other way, or a change in a side signal; the % refers to the signal ratio; note: potency is the fitted concentration of half-maximal effect; for activity change, negative = inhibition: % is set by controls: 0 for no effect and ±100 for the full control effect); conditions: NFkB beta-lactamase reporter cells, FRET ratio 460/530; activity change, negative = inhibition: at 38.3 µM (top of the series) unless noted
Outline: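 ME-180 NFkB-bla cells (beta-lactamase under NFkB response element), plated overnight, treated with compound then 10 pM TNF alpha (about EC50) for 5 hrs at 37 C. LiveBLAzer FRET read at 460/530 nm emission, 405 nm excitation.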

[2] = target: Endonuclease 4 (Escherichia coli (strain K12)) (UniProt P0A6C1); test: Counterscreen for APE1 Inhibitors: qHTS Validation Assay for Inhibitors of Endonuclease IV (AID 1708); note: potency is the fitted concentration of half-maximal effect
Outline: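 Conditions: 2 nM enzyme, 50 nM TAMRA/BHQ-2 substrate, pH 7.5 Tris buffer with 2 mM MgCl2, RT. Compound preincubation 15 min; readout three fluorescence reads 60 s apart, third-minus-first.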

[3] = qHTS for differential inhibitors of proliferation of Plasmodium falciparum line D10 (AID 1877);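 note: potency is the fitted concentration of half-maximal effect; parasites grown with compound for 72 h before DNA staining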
[4] = qHTS for differential inhibitors of proliferation of Plasmodium falciparum line HB3 (AID 1886); conditions: Potency: Plasmodium falciparum HB3 proliferation inhibition;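 note: parasites grown with compound for 72 h before SYBR Green readout; plate controls were vehicle for no effect and reference inhibitor for full effect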
[5] = target: RecQ-like DNA helicase BLM (Homo sapiens) (UniProt P54132); test: qHTS Validation Assay for Inhibitors of Bloom's syndrome helicase (BLM) (AID 2364); note: potency is the fitted concentration of half-maximal effect
UniProt P54132, sequence (P54132 whole entry, looked up): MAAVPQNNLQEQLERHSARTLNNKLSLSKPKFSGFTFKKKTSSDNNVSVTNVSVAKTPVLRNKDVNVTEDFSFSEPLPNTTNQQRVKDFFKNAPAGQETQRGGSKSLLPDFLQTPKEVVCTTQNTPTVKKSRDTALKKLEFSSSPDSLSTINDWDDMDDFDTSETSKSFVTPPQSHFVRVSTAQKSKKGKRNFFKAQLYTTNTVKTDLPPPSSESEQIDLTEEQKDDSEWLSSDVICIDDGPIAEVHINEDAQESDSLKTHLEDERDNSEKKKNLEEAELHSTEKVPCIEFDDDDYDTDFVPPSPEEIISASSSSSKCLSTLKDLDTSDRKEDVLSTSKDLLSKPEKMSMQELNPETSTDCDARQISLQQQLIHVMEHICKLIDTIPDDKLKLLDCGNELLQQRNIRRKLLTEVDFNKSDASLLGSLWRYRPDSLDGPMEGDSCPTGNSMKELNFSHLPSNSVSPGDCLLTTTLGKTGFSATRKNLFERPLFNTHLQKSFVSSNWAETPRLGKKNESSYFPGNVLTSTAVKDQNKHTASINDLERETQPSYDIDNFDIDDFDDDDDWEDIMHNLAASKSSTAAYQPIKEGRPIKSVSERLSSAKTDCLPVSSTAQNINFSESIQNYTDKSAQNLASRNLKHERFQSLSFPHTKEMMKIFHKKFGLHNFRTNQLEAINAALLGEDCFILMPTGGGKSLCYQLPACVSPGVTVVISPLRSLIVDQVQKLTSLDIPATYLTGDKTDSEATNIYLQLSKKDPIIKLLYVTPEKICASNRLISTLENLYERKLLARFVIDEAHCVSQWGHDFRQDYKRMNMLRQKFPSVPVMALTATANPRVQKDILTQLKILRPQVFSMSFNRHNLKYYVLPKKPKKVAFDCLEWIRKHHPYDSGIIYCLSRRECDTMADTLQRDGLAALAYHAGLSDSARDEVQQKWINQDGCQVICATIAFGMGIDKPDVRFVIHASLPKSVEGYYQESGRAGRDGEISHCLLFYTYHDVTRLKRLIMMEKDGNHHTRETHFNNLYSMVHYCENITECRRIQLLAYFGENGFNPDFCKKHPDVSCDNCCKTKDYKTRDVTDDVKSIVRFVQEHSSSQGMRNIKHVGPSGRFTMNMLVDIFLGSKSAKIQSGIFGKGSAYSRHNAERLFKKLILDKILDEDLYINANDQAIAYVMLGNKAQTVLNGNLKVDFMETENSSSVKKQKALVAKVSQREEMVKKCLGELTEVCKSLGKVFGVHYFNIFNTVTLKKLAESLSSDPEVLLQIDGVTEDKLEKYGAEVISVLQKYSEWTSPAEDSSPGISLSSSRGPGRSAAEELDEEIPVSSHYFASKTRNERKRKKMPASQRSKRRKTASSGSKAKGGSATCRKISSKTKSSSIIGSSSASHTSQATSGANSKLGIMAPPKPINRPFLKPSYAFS
Outline: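 50 nM BLM preincubated 15 min at room temperature with compound in pH 8.0 Tris buffer containing 2.5 ug/ml poly(dI-dC); started with 200 nM TAMRA/BHQ-2 forked duplex and 2 mM ATP (final). Unwinding read as TAMRA fluorescence increase, two reads 2 h apart.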

[6] = Cytometry Cell-Based qHTS for Inhibitors of the mTORC1 Signaling Pathway in MEF cells (AID 2668); note: potency is the fitted concentration of half-maximal effect
Outline: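 Read-out: phospho-rpS6 Ser235/236 immunofluorescence normalized to propidium iodide intensity, scored as % active cells against a rapamycin (7.5 nM) threshold. Cells: Tsc2-/-, p53-/- MEFs stably expressing WT Tsc2, compound-treated 24 hrs at 37 degree Celsius.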

[7] = Quantitative high throughput screen for delayed death inhibitors of the malarial parasite plastid, 96 hour incubation (AID 488745); note: potency is the fitted concentration of half-maximal effect; nearly all actives have a fitted effect of over 70% in size
Outline: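 Readout is firefly luciferase luminescence from an integrated reporter in P. falciparum; lower signal marks inhibited growth. Cultures at 2% hematocrit and 0.1% parasitemia were treated with compound across two generations (96 h, 37 C, 5% CO2).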

[8] = target: Chromobox protein homolog 1 (Homo sapiens) (UniProt P83916); test: qHTS Validation Assay for Inhibitors of HP1-beta Chromodomain Interactions with Methylated Histone Tails (AID 488953); note: nearly all actives have a fitted effect of over 50% in size; note: potency is the fitted concentration of half-maximal effect;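 for activity change, negative = inhibition: loss of AlphaScreen luminescence from HP1-beta binding biotinylated H3K9me3 peptide; % is set by controls: 0 for no effect and ±100 for the full control effect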
UniProt P83916, sequence (P83916 whole entry, looked up): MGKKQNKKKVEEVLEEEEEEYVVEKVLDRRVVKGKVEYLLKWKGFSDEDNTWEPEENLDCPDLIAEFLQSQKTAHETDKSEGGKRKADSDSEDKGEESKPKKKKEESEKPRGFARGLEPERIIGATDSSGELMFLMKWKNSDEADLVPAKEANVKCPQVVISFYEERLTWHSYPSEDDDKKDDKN
Outline: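 Disruption of preformed HP1-beta:H3K9me3 peptide complexes (both 50 nM, PBS pH 7.4 with 0.01% Tween-20) is measured by AlphaScreen after 30 min compound exposure at room temperature, using streptavidin donor and nickel chelate acceptor beads at 10 ug/mL final.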

[9] = Natriuretic polypeptide receptor (hNpr1) antagonism - Pilot counterscreen GloSensor control cell line (AID 1347045; calls by dose curve; note: potency is the fitted concentration of half-maximal effect; for activity change, negative = inhibition: % is set by controls: 0 for no effect and ±100 for the full control effect)
Outline: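 Cells were first seeded and incubated overnight at 37C, then loaded with 2% GloSensor substrate for 2 h. Compounds were added for 30 min at room temperature, followed by a baseline read, 50 uM SNP and a final read after 20 min.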

[10] = target: N-terminal Xaa-Pro-Lys N-methyltransferase 1 (Homo sapiens) (UniProt Q9BV86); test: qHTS Assay for Inhibitors of N-terminal methyltransferase 1 (NTMT1): LOPAC validation of the NTMT1 SAHH-coupled ThioGlo3 Assay (AID 1347143);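 note: SAH from peptide methylation measured as thiol fluorescence via SAHH coupling and ThioGlo3; nearly all actives have a fitted effect of over 70% in size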; note: potency is the fitted concentration of half-maximal effect; for activity change, negative = inhibition: % is set by controls: 0 for no effect and ±100 for the full control effect
UniProt Q9BV86, sequence (Q9BV86 whole entry, looked up): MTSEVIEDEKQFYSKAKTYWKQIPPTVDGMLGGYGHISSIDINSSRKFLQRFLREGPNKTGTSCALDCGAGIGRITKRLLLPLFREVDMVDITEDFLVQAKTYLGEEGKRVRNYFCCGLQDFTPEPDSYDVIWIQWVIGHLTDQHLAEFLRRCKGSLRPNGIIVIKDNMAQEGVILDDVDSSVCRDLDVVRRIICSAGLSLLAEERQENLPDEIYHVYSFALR
Outline: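 Steps: dispense 125nM NTMT1; pin-transfer test compounds at several concentrations, with 1uM RCC1-6 peptide as control; incubate 1 min; start with reagent holding 100uM SAM, 10uM SAHH, 15uM ThioGlo3; read at 0 and 30 min.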

[11] = Primary qHTS for small molecule stabilizers of the endoplasmic reticulum resident proteome: Secreted ER Calcium Modulated Protein (SERCaMP) assay (AID 1508630); conditions: SH-SY5Y GLuc-SERCaMP (Gaussia luciferase released on ER calcium loss) secretion, thapsigargin, luminescence; activity change, negative = inhibition: at 38.4 µM (top of the series); note: potency is the fitted concentration of half-maximal effect
Outline: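 The SH-SY5Y reporter protocol was run at 3 concentrations up to 38.3 uM (primary) or 11 concentrations (follow-up): 16 h compound, 100 nM thapsigargin for 4 h, then extracellular luciferase luminescence.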

[12] = target: ATPase family AAA domain-containing protein 5 (Homo sapiens) (UniProt Q96QE3); test: Validation screen for small molecules that inhibit ELG1-dependent DNA repair in human embryonic kidney (HEK293T) cells expressing luciferase-tagged ELG1 (AID 493107); conditions: HEK293T ELG1-luciferase level, luminescence, 5-fluorouridine co-treatment, 16 h; activity change, negative = decrease: at 46.1 µM (top of the series);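 note: cells co-treated with the DNA-damaging agent 5-fluorouridine alongside compound; % is set by controls: 0 for no effect and ±100 for the full control effect; inhibitors lower the ELG1-luciferase luminescence signal; nearly all actives have a fitted effect of over 70% in size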
Outline: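 Cells are dispensed in 1536-well format, then 5-fluorouridine and compound are pinned in. After a 16 hr incubation at 37 °C and 5% CO2, ONE-Glo is added and luciferase measured on a CCD imager.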

[13] = target: ATP-dependent 6-phosphofructokinase (Trypanosoma brucei brucei) (UniProt O15648); test: qHTS Validation Assay to Find Inhibitors of T. brucei phosphofructokinase (AID 485368); note: potency is the fitted concentration of half-maximal effect
UniProt O15648, sequence (O15648 whole entry, looked up): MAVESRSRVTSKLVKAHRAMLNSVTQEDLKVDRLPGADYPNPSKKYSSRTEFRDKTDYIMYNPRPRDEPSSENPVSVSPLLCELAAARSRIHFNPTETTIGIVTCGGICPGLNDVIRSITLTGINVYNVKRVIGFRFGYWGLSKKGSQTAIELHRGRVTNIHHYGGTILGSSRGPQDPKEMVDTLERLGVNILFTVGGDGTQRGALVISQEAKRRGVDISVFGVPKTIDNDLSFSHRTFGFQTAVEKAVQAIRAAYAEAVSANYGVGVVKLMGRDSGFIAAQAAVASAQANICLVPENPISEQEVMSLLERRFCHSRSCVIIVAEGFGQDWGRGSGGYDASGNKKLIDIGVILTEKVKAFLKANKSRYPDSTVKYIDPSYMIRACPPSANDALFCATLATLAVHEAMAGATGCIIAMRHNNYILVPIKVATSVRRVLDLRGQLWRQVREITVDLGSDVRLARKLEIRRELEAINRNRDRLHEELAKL
Outline: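 ADP-Glo luminescence, two-step: residual ATP depleted, then ADP converted to ATP for luciferase. Enzyme 1.25 nM, F6P 0.5 mM, ATP 0.1 mM, pH 8.0 TEA buffer, 45 min RT. Curves fitted and classed by quality and efficacy.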

[14] = target: Lysine-specific demethylase 5B (Homo sapiens) (UniProt Q9UGL1); test: Optimization screen for KDM5B Histone Demethylases FDH coupled qHTS against the LOPAC library (AID 1347166); conditions: KDM5B demethylation, FDH-coupled NADH fluorescence (FDH is formaldehyde dehydrogenase); activity, negative = inhibition: at 57.5 µM (top of the series) unless noted; note: 0% is about no effect
UniProt Q9UGL1, sequence (Q9UGL1 whole entry, looked up): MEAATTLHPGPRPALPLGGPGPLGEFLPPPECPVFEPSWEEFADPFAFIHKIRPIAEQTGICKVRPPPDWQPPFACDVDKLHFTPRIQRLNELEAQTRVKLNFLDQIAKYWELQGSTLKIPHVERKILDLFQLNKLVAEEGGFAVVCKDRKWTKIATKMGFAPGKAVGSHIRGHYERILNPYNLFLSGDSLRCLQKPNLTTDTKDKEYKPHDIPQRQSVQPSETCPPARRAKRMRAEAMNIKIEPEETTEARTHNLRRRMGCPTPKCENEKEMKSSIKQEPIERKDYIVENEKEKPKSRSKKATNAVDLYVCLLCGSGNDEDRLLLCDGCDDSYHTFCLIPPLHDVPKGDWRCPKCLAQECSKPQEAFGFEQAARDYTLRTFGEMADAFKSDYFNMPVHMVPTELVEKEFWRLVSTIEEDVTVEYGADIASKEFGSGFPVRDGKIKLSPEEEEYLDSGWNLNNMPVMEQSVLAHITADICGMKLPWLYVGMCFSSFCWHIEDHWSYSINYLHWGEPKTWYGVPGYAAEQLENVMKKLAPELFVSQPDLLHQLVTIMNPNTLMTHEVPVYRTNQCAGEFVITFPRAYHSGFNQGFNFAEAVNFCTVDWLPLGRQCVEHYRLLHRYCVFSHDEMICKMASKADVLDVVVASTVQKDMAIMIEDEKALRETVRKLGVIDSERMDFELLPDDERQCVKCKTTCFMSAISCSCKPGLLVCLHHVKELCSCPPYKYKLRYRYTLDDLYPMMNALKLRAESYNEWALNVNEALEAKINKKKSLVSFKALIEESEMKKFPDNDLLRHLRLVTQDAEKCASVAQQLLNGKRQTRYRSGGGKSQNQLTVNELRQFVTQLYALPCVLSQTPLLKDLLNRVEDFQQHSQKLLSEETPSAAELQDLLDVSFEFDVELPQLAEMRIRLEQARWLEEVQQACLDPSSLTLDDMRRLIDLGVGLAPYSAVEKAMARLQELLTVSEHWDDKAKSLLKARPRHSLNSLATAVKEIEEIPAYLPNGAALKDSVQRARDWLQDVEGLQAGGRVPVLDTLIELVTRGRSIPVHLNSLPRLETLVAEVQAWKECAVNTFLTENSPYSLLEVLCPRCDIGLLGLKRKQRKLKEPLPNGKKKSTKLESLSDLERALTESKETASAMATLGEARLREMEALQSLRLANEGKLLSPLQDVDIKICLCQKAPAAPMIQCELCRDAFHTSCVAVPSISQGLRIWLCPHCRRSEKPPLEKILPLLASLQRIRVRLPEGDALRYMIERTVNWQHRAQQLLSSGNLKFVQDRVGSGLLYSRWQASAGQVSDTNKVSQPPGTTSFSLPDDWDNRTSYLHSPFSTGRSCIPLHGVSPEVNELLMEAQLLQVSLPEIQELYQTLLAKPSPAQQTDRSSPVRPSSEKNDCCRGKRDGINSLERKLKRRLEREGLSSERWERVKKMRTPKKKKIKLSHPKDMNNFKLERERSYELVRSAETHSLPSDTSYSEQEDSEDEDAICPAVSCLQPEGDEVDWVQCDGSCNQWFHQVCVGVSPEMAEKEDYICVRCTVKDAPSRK
Outline: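 KDM5BDeltaAP (200nM final) in 50mM HEPES pH 7.5, 0.01% Tween-20 was preincubated with compound for 10 min at room temperature. A substrate mix of 12.5uM H3K4Me3, 25uM a-ketoglutarate, ascorbate, Fe2+, NAD+ and formaldehyde dehydrogenase was then added. NADH fluorescence (340/450 nm) was read initially and after 30 min.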
Tags give direction and shape of the fitted curve or compound fluorescence and quenching.

Nc1ccc(CCN2CCN(c3cccc(C(F)(F)F)c3)CC2)cc1
inactive: Potency [4]
inconclusive: Potency [1] 1 µM [inhibitor, full curve] | Potency [2] 0.282 µM [inhibitor, partial curve, poor fit] | Potency [3] 14.1 µM [inhibitor, partial curve, poor fit] | Potency [5] 56.2 µM [inhibitor, partial curve] | Potency [6] 18.5 µM [falling, single point] | Potency [7] 4.15 µM [activator, single point] | Potency [8] 39.8 µM [inhibitor, partial curve] | Potency [9] 20.7 µM [inhibitor, single point] | Potency [10] 56.2 µM [inhibitor, partial curve] | Potency [11] 28.2 µM [inhibitor, single point]

CC(=O)NCCc1c[nH]c2ccccc12
inactive: Potency [12] | Potency [9] | Potency [10]
inconclusive: activity change, negative = inhibition [1] -12.1% | Potency [5] 0.0045 µM [inhibitor, full curve, poor fit] | Potency [8] 26.7 µM [inhibitor, single point]

C[N+]1(C)CCc2cc3c(cc2[C@H]1[C@@H]1OC(=O)c2c1ccc1c2OCO1)OCO3
inactive: Potency [8] | Potency [14]
inconclusive: Potency [13] 37.9 µM [activator, single point] | Potency [9] 0.826 µM [inhibitor, full curve, poor fit] | Potency [10] 79.4 µM [inhibitor, partial curve] | Potency [11] 2.24 µM [inhibitor, full curve, poor fit]
